This is an account of results in PMC9911399, “Two distinct binding modes provide the RNA-binding protein RbFox with extraordinary sequence specificity”.

The labels stand for the following.
T1: RBFOX1 RRM RbFoxmut (Fox-RRM*) (Homo sapiens, UniProt Q9NWB1 109-208, R118D;E147R;N151S;E152T)
T1 sequence: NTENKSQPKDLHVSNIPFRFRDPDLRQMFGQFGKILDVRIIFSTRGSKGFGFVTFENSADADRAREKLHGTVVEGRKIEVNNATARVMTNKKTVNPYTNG

B1: UCUAAUG (DNA:RNA)
RNA: GGGAGACCGGAAUUCAGAUUGUCCUCUAAUGUUAAAUCCCGUCGUAGCCACCA
DNA 1: CAATCTGAATTCCGGTCTCCC
DNA 2: TGGTGGCTACGACGGGATT
B2: CGAGCCG (DNA:RNA)
RNA: B1 RNA with U25C, C26G, U27A, A28G, A29C, U30C
DNA 1: CAATCTGAATTCCGGTCTCCC
DNA 2: TGGTGGCTACGACGGGATT
B3: GAGUAAU (DNA:RNA)
RNA: B1 RNA with U25G, C26A, U27G, A28U, U30A, G31U
DNA 1: CAATCTGAATTCCGGTCTCCC
DNA 2: TGGTGGCTACGACGGGATT
B4: CCGGCGG (DNA:RNA)
RNA: B1 RNA with U25C, U27G, A28G, A29C, U30G
DNA 1: CAATCTGAATTCCGGTCTCCC
DNA 2: TGGTGGCTACGACGGGATT
B5: UACCAAU (DNA:RNA)
RNA: B1 RNA with C26A, U27C, A28C, U30A, G31U
DNA 1: CAATCTGAATTCCGGTCTCCC
DNA 2: TGGTGGCTACGACGGGATT
B6: UCUAGUA (DNA:RNA)
RNA: B1 RNA with A29G, G31A
DNA 1: CAATCTGAATTCCGGTCTCCC
DNA 2: TGGTGGCTACGACGGGATT
B7: UUCCCGC (DNA:RNA)
RNA: B1 RNA with C26U, U27C, A28C, A29C, U30G, G31C
DNA 1: CAATCTGAATTCCGGTCTCCC
DNA 2: TGGTGGCTACGACGGGATT
B8: UUCAUCG (DNA:RNA)
RNA: B1 RNA with C26U, U27C, A29U, U30C
DNA 1: CAATCTGAATTCCGGTCTCCC
DNA 2: TGGTGGCTACGACGGGATT
B9: UGGAGGG (DNA:RNA)
RNA: B1 RNA with C26G, U27G, A29G, U30G
DNA 1: CAATCTGAATTCCGGTCTCCC
DNA 2: TGGTGGCTACGACGGGATT
B10: CUGCCCC (DNA:RNA)
RNA: GGGAGACCGGAAUUCAGAUUGUCCCUGCCCCUUAAAUCCCGUCGUAGCCACCA
DNA 1: CAATCTGAATTCCGGTCTCCC
DNA 2: TGGTGGCTACGACGGGATT
B11: CUUCCGU (DNA:RNA)
RNA: B10 RNA with G27U, C30G, C31U
DNA 1: CAATCTGAATTCCGGTCTCCC
DNA 2: TGGTGGCTACGACGGGATT
B12: GAUGCAC (DNA:RNA)
RNA: B10 RNA with C25G, U26A, G27U, C28G, C30A
DNA 1: CAATCTGAATTCCGGTCTCCC
DNA 2: TGGTGGCTACGACGGGATT
B13: CCCUUUU (DNA:RNA)
RNA: B1 RNA with U25C, U27C, A28U, A29U, G31U
DNA 1: CAATCTGAATTCCGGTCTCCC
DNA 2: TGGTGGCTACGACGGGATT
B14: CUCAGCU (DNA:RNA)
RNA: B10 RNA with G27C, C28A, C29G, C31U
DNA 1: CAATCTGAATTCCGGTCTCCC
DNA 2: TGGTGGCTACGACGGGATT
B15: CCUAGAC (DNA:RNA)
RNA: B1 RNA with U25C, A29G, U30A, G31C
DNA 1: CAATCTGAATTCCGGTCTCCC
DNA 2: TGGTGGCTACGACGGGATT
B16: AGGCAUG (DNA:RNA)
RNA: B1 RNA with U25A, C26G, U27G, A28C
DNA 1: CAATCTGAATTCCGGTCTCCC
DNA 2: TGGTGGCTACGACGGGATT
B17: UAACCGC (DNA:RNA)
RNA: B10 RNA with C25U, U26A, G27A, C30G
DNA 1: CAATCTGAATTCCGGTCTCCC
DNA 2: TGGTGGCTACGACGGGATT
B18: UAGACGA (DNA:RNA)
RNA: B10 RNA with C25U, U26A, C28A, C30G, C31A
DNA 1: CAATCTGAATTCCGGTCTCCC
DNA 2: TGGTGGCTACGACGGGATT
B19: AUCAGUU (DNA:RNA)
RNA: B1 RNA with U25A, C26U, U27C, A29G, G31U
DNA 1: CAATCTGAATTCCGGTCTCCC
DNA 2: TGGTGGCTACGACGGGATT
B20: UAUACAA (DNA:RNA)
RNA: B1 RNA with C26A, A29C, U30A, G31A
DNA 1: CAATCTGAATTCCGGTCTCCC
DNA 2: TGGTGGCTACGACGGGATT
B21: UAACUUA (DNA:RNA)
RNA: B1 RNA with C26A, U27A, A28C, A29U, G31A
DNA 1: CAATCTGAATTCCGGTCTCCC
DNA 2: TGGTGGCTACGACGGGATT
B22: CCGACUA (DNA:RNA)
RNA: B10 RNA with U26C, C28A, C30U, C31A
DNA 1: CAATCTGAATTCCGGTCTCCC
DNA 2: TGGTGGCTACGACGGGATT
B23: UCACCUU (DNA:RNA)
RNA: B1 RNA with U27A, A28C, A29C, G31U
DNA 1: CAATCTGAATTCCGGTCTCCC
DNA 2: TGGTGGCTACGACGGGATT
B24: ACUGGUA (DNA:RNA)
RNA: B1 RNA with U25A, A28G, A29G, G31A
DNA 1: CAATCTGAATTCCGGTCTCCC
DNA 2: TGGTGGCTACGACGGGATT
B25: AGCACUA (DNA:RNA)
RNA: B1 RNA with U25A, C26G, U27C, A29C, G31A
DNA 1: CAATCTGAATTCCGGTCTCCC
DNA 2: TGGTGGCTACGACGGGATT
B26: UCAGACU (DNA:RNA)
RNA: B1 RNA with U27A, A28G, U30C, G31U
DNA 1: CAATCTGAATTCCGGTCTCCC
DNA 2: TGGTGGCTACGACGGGATT
B27: CUAUCAC (DNA:RNA)
RNA: B10 RNA with G27A, C28U, C30A
DNA 1: CAATCTGAATTCCGGTCTCCC
DNA 2: TGGTGGCTACGACGGGATT
B28: AUACCCU (DNA:RNA)
RNA: B10 RNA with C25A, G27A, C31U
DNA 1: CAATCTGAATTCCGGTCTCCC
DNA 2: TGGTGGCTACGACGGGATT
B29: CAUCACA (DNA:RNA)
RNA: B10 RNA with U26A, G27U, C29A, C31A
DNA 1: CAATCTGAATTCCGGTCTCCC
DNA 2: TGGTGGCTACGACGGGATT
B30: GUAUGUA (DNA:RNA)
RNA: B10 RNA with C25G, G27A, C28U, C29G, C30U, C31A
DNA 1: CAATCTGAATTCCGGTCTCCC
DNA 2: TGGTGGCTACGACGGGATT
B31: GACGGAA (DNA:RNA)
RNA: GGGAGACCGGAAUUCAGAUUGUCCGACGGAAUUAAAUCCCGUCGUAGCCACCA
DNA 1: CAATCTGAATTCCGGTCTCCC
DNA 2: TGGTGGCTACGACGGGATT

Changes are numbered by the printed parent chain; changes in the protein carry UniProt numbers. The list shows a part of the results.

For this test, the target named is T1, RBFOX1 RRM RbFoxmut (Fox-RRM*). In words: EMSA; HiTS-Eq, 1 nM pool, 10 min; buffer printed only for the single-RNA assays: 10 mM Tris pH 7.5, 150 mM NaCl, 3.4 mM EDTA, 0.001% NP-40, 30 C. As to conditions: tags: His6 N-terminal (pET28a); label: 5' 32P. A digest of the protocol: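 Purified RbFox RRM (wild type or mutant) was equilibrated for 10 min in 50 µL with 1 nM of a 5′-radiolabelled pool of RNA with 7 randomized nucleotides, its flanks annealed to DNA oligonucleotides, across increasing protein concentrations. Free RNA was separated by 8% native PAGE, excised, reverse-transcribed, PCR-barcoded and sequenced on an Illumina HiSeq 2500. Relative association constants came from read-count changes of each variant against the control reaction, normalised to the cognate motif.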
For orientation: A gel shift assay detects complexes by their altered migration in electrophoresis.
Consider B1, for which the binding signal is 0.127 KA relative to UGCAUGU.
As to B2, the binding signal is 0.102 KA relative to UGCAUGU.
B3: the binding signal was 0.114 KA relative to UGCAUGU.
With B4, the binding signal is 0.102 KA relative to UGCAUGU.
Regarding B5, the binding signal is 0.0762 KA relative to UGCAUGU.
For the molecule B6, the binding signal was 0.12 KA relative to UGCAUGU.
Turning to B7, the binding signal is 0.0732 KA relative to UGCAUGU.
Turning to B8, the binding signal is 0.113 KA relative to UGCAUGU.
As to B9, the binding signal is 0.049 KA relative to UGCAUGU.
As to B10, the binding signal is 0.0441 KA relative to UGCAUGU.
To B11 belongs 0.0657 KA relative to UGCAUGU; to B12, 0.0758 KA relative to UGCAUGU; to B13, 0.0591 KA relative to UGCAUGU.
In the case of B14, the binding signal was 0.0972 KA relative to UGCAUGU.
The result for B15 reads 0.101 KA relative to UGCAUGU; that for B16, 0.799 KA relative to UGCAUGU; that for B17, 0.104 KA relative to UGCAUGU.
B18: the binding signal was 0.0514 KA relative to UGCAUGU.
Turning to B19, the binding signal is 0.0812 KA relative to UGCAUGU.
For the molecule B20, the binding signal is 0.0208 KA relative to UGCAUGU.
With B21, the binding signal was 0.0918 KA relative to UGCAUGU.
The result for B22 reads 0.0954 KA relative to UGCAUGU.
Regarding B23, the binding signal was 0.0993 KA relative to UGCAUGU.
On to B24, for which the binding signal is 0.167 KA relative to UGCAUGU.
As for B25, the binding signal is 0.0872 KA relative to UGCAUGU.
With B26, the binding signal is 0.0699 KA relative to UGCAUGU.
To B27 belongs 0.0822 KA relative to UGCAUGU; to B28, 0.0902 KA relative to UGCAUGU.
For B29, the binding signal was 0.179 KA relative to UGCAUGU.
For B30, the binding signal is 0.63 KA relative to UGCAUGU.
Regarding B31, the binding signal is 0.11 KA relative to UGCAUGU.
